This is an account of results in PMC6212790.

Some of the results follow. At the low end of the ranking the order means little.

In this test the target is T1, GST-Rok (full length) (UniProt O34857).
T1 sequence: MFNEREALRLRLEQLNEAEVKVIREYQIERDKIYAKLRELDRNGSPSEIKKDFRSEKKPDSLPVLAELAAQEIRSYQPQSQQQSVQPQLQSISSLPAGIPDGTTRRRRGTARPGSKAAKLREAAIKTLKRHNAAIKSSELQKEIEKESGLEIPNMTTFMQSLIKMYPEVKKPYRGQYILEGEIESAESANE
Kind of test: protein binding microarray.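 Note: rank score from −0.5 (least bound) to 0.5 (best bound).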 The following applies: Rok is a gene silencer of Bacillus subtilis; high values mean tight binding; most listed sequences are background and not binding sites; double strand, one strand shown.
Sequence AAGCGTAC had a binding signal of -0.0898 E-score.
The same measure for AATAACCG: 0.218 E-score.
Next, GATTTCTA: 0.3 E-score; CATGCTCA: -0.172 E-score; CGACGGGC: -0.306 E-score.
Regarding CAGCATTC, the binding signal was 0.0234 E-score.
Next, AACACGGA: 0.18 E-score; CGGGATAG: -0.0108 E-score.
Next, ACAGCACT: -0.178 E-score; CCTGCATC: 0.0324 E-score; CAGCGTGA: -0.12 E-score.
GCGTTTTA displayed a binding signal of 0.117 E-score.
In the case of GACAACGC, the binding signal is -0.287 E-score.
Next, ACCCAGTA: 0.0523 E-score; GCGACTGA: 0.0748 E-score.
Next, AACTAATT: 0.32 E-score.
The same measure for CATGACAC: -0.00451 E-score; for GATATGTA: 0.296 E-score.
Take CTATGTTC: the binding signal is -0.0285 E-score.
The same measure for GTACCATA: 0.339 E-score; for ACTCTCCC: -0.284 E-score; for GCCCATCC: -0.148 E-score.
The sequence CATAACTA showed a binding signal of 0.312 E-score.
The same measure for CCGGCCCG: -0.399 E-score; for TAAGCACA: 0.0191 E-score.
The same measure for CCTCTGAA: -0.125 E-score; for ACTTTATA: 0.206 E-score.
AAAAGTTC came in with a binding signal of 0.114 E-score.
Take GCGGACGA: the binding signal was -0.191 E-score.
Sequence CTAACATA came in with a binding signal of 0.186 E-score.
The same measure for CGCGACGA: -0.121 E-score.
The same measure for GATACTGA: 0.109 E-score; for ACCGGAGC: -0.212 E-score; for CCACCGCC: -0.0582 E-score.
In the case of CTTTGCGC, the binding signal is 0.085 E-score.
As to AGAACACA, the binding signal is 0.0687 E-score.
As to ATCCCCAG, the binding signal was -0.303 E-score.
Sequence AATTCGCT displayed a binding signal of 0.0509 E-score.
In the case of TCCGCTCA, the binding signal is -0.163 E-score.
AACCGCGC yielded a binding signal of -0.146 E-score.
Next, TCTCAGCA: -0.0372 E-score; GGAGTTCA: -0.00501 E-score.
The same measure for GGAATGAA: -0.117 E-score; for GTTCACCA: 0.0397 E-score; for TAGGCATA: 0.235 E-score.
Regarding GCAGGGGA, the binding signal was -0.319 E-score.
In turn, ACTCCAAG gave a binding signal of -0.0862 E-score.
Next, CTGGGATC: -0.273 E-score; CACAGGTG: -0.275 E-score; GCGCTTAA: -0.00677 E-score.
Next, TAGAATCA: 0.253 E-score; CAAGACAA: -0.0166 E-score.
Next, CCACTGGC: -0.258 E-score; GAGAGGGA: -0.2 E-score; GCTCCCAA: -0.324 E-score.
Sequence AATGTTCA showed a binding signal of 0.318 E-score.
The same measure for AGTTAAGG: 0.07 E-score; for TCACGCCA: -0.0759 E-score.
Next, GAACACGC: -0.13 E-score; AATCACCT: 0.0136 E-score; AGTCGTTG: -0.152 E-score.
For GACGGAAA, the binding signal is 0.0694 E-score.
Next, CTCGGCTC: -0.334 E-score.
The same measure for CTCCACCA: -0.0837 E-score; for TCTTTCCA: -0.0837 E-score.
The same measure for AGCCGCAA: -0.265 E-score; for TCCATGGA: 0.0494 E-score.
In turn, CTAACGGC yielded a binding signal of -0.228 E-score.
The same measure for ATCAGAGG: -0.0388 E-score; for ATTATTGG: 0.122 E-score; for TCTGGACA: -0.0137 E-score.
The sequence AAGACCTT displayed a binding signal of -0.148 E-score.
Next, ATCGTCGC: 0.00745 E-score.
Consider CAAGCGCA, for which the binding signal is -0.0982 E-score.
Next, GGGAGTAA: -0.218 E-score.
The same measure for AGCTTACG: -0.0197 E-score; for CGATCAGA: -0.0547 E-score.
Next, GCTTTAGA: 0.0315 E-score.
With GGGTACAA, the binding signal was determined as 0.0328 E-score.
In the case of CATAAGAC, the binding signal was 0.0735 E-score.
GGCCGACC yielded a binding signal of -0.303 E-score.
Next, CCACCACG: -0.243 E-score; AGCTTATG: -0.0757 E-score; GAATATAC: 0.306 E-score.
AGTGAGGC displayed a binding signal of -0.116 E-score.
The same measure for CAAGGGTC: -0.201 E-score; for GATCGATC: 0.136 E-score; for AATTCAGG: 0.0372 E-score.
CTAGTTAC registered a binding signal of 0.418 E-score.
The same measure for AAAGCTTG: -0.0609 E-score.
ATCAGCTC registered a binding signal of 0.014 E-score.
On to TTAAGAAA, for which the binding signal came out at 0.0666 E-score.
Next, AGTCCCTC: -0.272 E-score; AACCCAGC: -0.136 E-score.
In the case of CGGGGCAA, the binding signal is -0.152 E-score.
Next, ACGAGTGA: 0.0885 E-score; GGTAGACA: 0.0655 E-score; AGATAGCG: 0.22 E-score.
Next, CACCACTA: 0.0926 E-score; AAAAGTGG: 0.0883 E-score; GCGGGCAA: -0.178 E-score.
The same measure for AAACGATA: 0.119 E-score; for CATTCAAG: -0.00822 E-score.
On to GTGAGTGA, for which the binding signal is 0.115 E-score.
AACAAACT had a binding signal of 0.0328 E-score.
Next, CTCATCAG: 0.0181 E-score; AACGCGCG: -0.0168 E-score; CGAGACCG: -0.288 E-score.
Consider GAACTAAA, for which the binding signal stood at 0.23 E-score.
In turn, TCCTAGCA showed a binding signal of -0.0486 E-score.
On to AAACTGCC, for which the binding signal is -0.0758 E-score.
Turning to CGGGTAAA, the binding signal is -0.0723 E-score.
GAAGCTTA: the binding signal worked out at 0.0154 E-score.
Sequence ATAGACGG showed a binding signal of -0.147 E-score.
Next, CAGAAACG: 0.0372 E-score.
The same measure for GATAGCCC: -0.225 E-score; for ACCGACGC: -0.109 E-score.
With CAATCGTG, the binding signal was -0.0317 E-score.
Next, CGCAAGCA: -0.18 E-score; CCCTAAAA: -0.201 E-score; CCGACTCG: -0.125 E-score.
The same measure for ACTCCTAT: 0.122 E-score.
Sequence CCCGACAG yielded a binding signal of -0.119 E-score.
Take TGGGAAAA: the binding signal was -0.0408 E-score.
Sequence AGATCCTG yielded a binding signal of 0.0544 E-score.
Next, AAGACAGA: -0.00818 E-score; CATATACG: 0.261 E-score; CATTCTCA: 0.0256 E-score.
Next, GAGGAACA: -0.272 E-score; CGAGGACC: -0.0226 E-score.
In the case of CTATCTTA, the binding signal was 0.182 E-score.
Next, ACGCTAAA: 0.119 E-score; CGTCAAGA: -0.143 E-score; CAATACCC: -0.0924 E-score.
For the sequence CTCAACGA, the binding signal was -0.0344 E-score.
The same measure for CGCACACG: -0.218 E-score; for TATCTGAA: 0.137 E-score; for TCGGATAA: 0.0263 E-score.
TAGTTCAA yielded a binding signal of 0.152 E-score.
Take GCTCTGCC: the binding signal is -0.392 E-score.
For AGCGTGAG, the binding signal was -0.0889 E-score.
Next, AAATGAAT: 0.162 E-score; CTTGCCTC: -0.0866 E-score; ACTTCTGC: 0.0927 E-score.
In turn, ACCGATCC registered a binding signal of -0.198 E-score.
TGTTACAA gave a binding signal of 0.149 E-score.
The same measure for CACTGTGC: 0.0146 E-score; for ACGGTGGA: -0.0364 E-score; for AAGTGCCC: -0.205 E-score.
Next, AGGCCTAA: -0.171 E-score; GCGTCATA: 0.0323 E-score.
As to GTCATTAA, the binding signal is -0.131 E-score.
The same measure for GCCTGCTA: -0.148 E-score; for AACCGGTT: 0.00681 E-score; for TGAATGCA: -0.082 E-score.
Next, GTTCTTTA: -0.182 E-score; CAGCTAGG: -0.26 E-score.
Next, CTATTTTA: 0.325 E-score.
ATTAGGCA gave a binding signal of 0.014 E-score.
The same measure for GAGCGCCC: -0.362 E-score; for GGGATTAC: -0.141 E-score.
The sequence ATTTTATG had a binding signal of 0.251 E-score.
The same measure for CGACTCTA: -0.135 E-score; for AGTTACCG: 0.0981 E-score.
Next, CTCTTTGC: -0.326 E-score; AAAGCCGA: 0.118 E-score.
On to CGCAGACG, for which the binding signal is -0.361 E-score.
As to CTGTAAGC, the binding signal was -0.197 E-score.
ACGGGGAA gave a binding signal of -0.142 E-score.
Next, TACTAGGA: 0.183 E-score; CATCATCC: -0.0759 E-score; CGGTATGA: 0.0833 E-score.
